Values joined by “and” are separate entries in the source; they are usually repeats but may differ in a detail not shown here. Identical values can stand only once. Over roughly 110,000 compounds, “z-score” has its median near -0.1; the highest 2% begin near 2. Some of the results follow.

The test deals with Metabotropic glutamate receptor 8 (Rattus norvegicus) (UniProt P70579). As to the kind of experiment: rat mGluR8 modulators via GIRK flux, primary screen, cell-based, thallium flux, HTS (AID 488969). As to conditions: HEK293 rat mGluR8, GIRK (G protein-gated inwardly rectifying potassium channel) thallium flux, FluoZin2; at 10 µM; stronger effect = higher value; submaximal glutamate (EC20) added with thallium.
Chain of UniProt P70579 (P70579 whole entry, looked up): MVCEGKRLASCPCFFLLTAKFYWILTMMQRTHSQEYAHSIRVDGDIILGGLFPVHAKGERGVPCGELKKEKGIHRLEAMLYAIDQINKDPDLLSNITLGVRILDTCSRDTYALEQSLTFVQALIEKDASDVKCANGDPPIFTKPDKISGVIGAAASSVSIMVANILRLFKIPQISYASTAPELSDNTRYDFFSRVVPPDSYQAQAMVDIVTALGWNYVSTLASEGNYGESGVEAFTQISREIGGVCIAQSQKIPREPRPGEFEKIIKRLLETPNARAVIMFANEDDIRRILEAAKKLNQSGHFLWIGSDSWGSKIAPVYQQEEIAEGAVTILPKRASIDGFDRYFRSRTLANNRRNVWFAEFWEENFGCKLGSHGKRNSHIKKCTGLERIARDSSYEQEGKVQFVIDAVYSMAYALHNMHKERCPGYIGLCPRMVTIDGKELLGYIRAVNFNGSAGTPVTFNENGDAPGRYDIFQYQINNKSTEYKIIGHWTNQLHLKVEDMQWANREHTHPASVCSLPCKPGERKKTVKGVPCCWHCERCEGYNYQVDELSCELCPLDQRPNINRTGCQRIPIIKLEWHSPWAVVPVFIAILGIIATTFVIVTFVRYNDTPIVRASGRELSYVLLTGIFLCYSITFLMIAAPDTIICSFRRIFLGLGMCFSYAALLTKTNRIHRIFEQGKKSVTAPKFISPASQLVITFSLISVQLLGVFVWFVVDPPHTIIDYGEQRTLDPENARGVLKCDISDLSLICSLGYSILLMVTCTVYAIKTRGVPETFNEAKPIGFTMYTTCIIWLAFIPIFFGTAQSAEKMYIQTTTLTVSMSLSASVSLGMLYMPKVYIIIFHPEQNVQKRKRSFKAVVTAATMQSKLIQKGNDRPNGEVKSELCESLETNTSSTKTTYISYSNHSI
`CC1CCCCC1NC(=O)Cn1[nH]c(=O)c2ccccc2c1=O` (configuration not stated): the z-score was 0.915.

For the compound `NC(=O)c1cc2ccccc2oc1=NCc1ccccc1`, the z-score was -0.00924.

Take `CC(C)CCNC(=O)CC1C(=O)N(Cc2ccccc2)C(C)c2nc3ccccc3n21` (configuration not stated): the z-score is 0.168.

With `CC1=C(C(=O)Nc2cccnc2)C(c2cccnc2)n2nc(-c3cccs3)nc2N1` (configuration not stated), the z-score was -0.574.

For the compound `Cc1cc(C(=O)OCC(=O)N2c3ccccc3NC(=O)C2(C)C)c(C)n1-c1ccccc1`, the z-score is 0.0368.

`CCOC(=O)N1CCC(N(C(=O)Nc2cccc(OC)c2)C(C)CC)CC1` (configuration not stated) had a z-score of -0.355.

As to `O=C(COc1ccccc1[N+](=O)[O-])N/N=C/c1ccccn1`, the z-score was -0.144.

In turn, `C=CCn1c(N)c(C(=O)N2CCOCC2)sc1=S` registered a z-score of 0.315.

In the case of `CNc1csc(C)c(C)c1=O`, the z-score is -0.0061.

The compound `Cc1ccc(NC(=O)COC(=O)CNC(=O)c2ccc(Br)cc2)c(C)c1` came in with a z-score of -0.336.

The compound `Cc1cc(NC(=S)NC(=O)c2ccccc2)ccc1-c1cc2ccccc2oc1=O` displayed a z-score of -0.165.

`COCCCNC(=S)Nc1ccc2c(c1)OCCO2` showed a z-score of -0.0306.

The compound `Cc1sc2ncnc(Sc3ccccc3C(=O)Nc3ccc(Br)cc3)c2c1C` had a z-score of -0.25.

`Cc1ccc(NS(=O)(=O)c2cc(C(=O)Nc3cccc([N+](=O)[O-])c3)ccc2C)cc1`: the z-score was -0.0552.

Regarding `Cc1cc(C)n(-c2ccc(C(=O)Nc3ccc(S(=O)(=O)NCc4ccco4)cc3)cc2)n1`, the z-score is -0.614.

Take `O=C(/C=C/c1ccccc1)/C=C/c1ccccc1`: the z-score was -0.389.

For `S=C(Nc1cccc(Cl)c1)Nc1cccc2cnccc12`, the z-score came to 2.74.

In turn, `O=C(Oc1cccc2cccnc12)c1ccco1` gave a z-score of -0.0367.

For the compound `CCN(CC)S(=O)(=O)c1cc(C(=O)OCC(=O)Nc2cccc(Br)c2)ccc1F`, the z-score was -0.903.

Compound `CN(C)CCCCCCCCCCC(=O)/C=N/O` showed a z-score of 0.216.

Regarding `COc1ccc(Cl)cc1NC(=O)COC(=O)CCCN1C(=O)c2ccccc2C1=O`, the z-score was -0.057.

In turn, `O=C(Oc1ccccc1)c1cccc2cccnc12` returned a z-score of 0.0897.

For the compound `COc1ccc(CC(=O)NCc2ccccn2)cc1OC`, the z-score was -0.156.

As to `CC(=O)Oc1ccc(C(=O)Nc2nnc(C)s2)cc1`, the z-score was -1.24.

As for `CC(NC(=O)c1ccco1)C(c1cccs1)N1CCN(c2ccc(F)cc2)CC1` (configuration not stated), the z-score was -1.05.

`O=C1c2ccc3c4c(ccc(c24)C(=O)N1NC(=O)C(F)(F)F)CC3` had a z-score of -0.584.

For `CC(C)CNC(=O)c1ccccc1NC(=O)CSCc1ccccc1`, the z-score is -0.0809.

As for `O=C1OC(c2ccc3c(c2)OCO3)N(C(=O)c2ccc(Cl)c(Cl)c2)c2ccccc21` (configuration not stated), the z-score is -0.648.

On to `O=C(Cc1c(F)cccc1Cl)Nc1ccncc1`, for which the z-score is -0.151.

`CC(C)(CO)NC(=O)C(c1ccccc1)c1ccccc1` had a z-score of 0.05.

`Cc1ccc(NC(=O)CCC(=O)NNS(=O)(=O)c2ccccc2)cc1C`: the z-score is 0.494.

With `Cc1ccc(-c2nnc(SCC(=O)Nc3ccccc3N3CCOCC3)o2)cc1`, the z-score worked out at 0.657.

Compound `O=C(NCC1CCCO1)C1c2ccccc2C(=O)N1C1CCCCCCC1` (configuration not stated) displayed a z-score of -0.14.

Compound `CCOc1cc(C)c(Cl)cc1S(=O)(=O)n1cnc2ccccc21` showed a z-score of -0.325.

`CCC(C)NC(=O)Cn1c(=O)n(CCCCCC(=O)Nc2ccccc2)c(=O)c2sccc21` (configuration not stated) came in with a z-score of -0.253.

For `COCC(C)NC(=O)NC1(C(F)(F)F)Oc2ccc(Cl)cc2O1` (configuration not stated), the z-score turned out to be 0.0254.

`CCCCNC(=O)c1cc(-c2ccc(OC)c(OC)c2)on1` yielded a z-score of 0.106.

In turn, `Cc1ccc(CN(C(=O)c2sc3ccccc3c2Cl)C2CCS(=O)(=O)C2)cc1` (configuration not stated) registered a z-score of 0.2.

With `CC1CCN(c2nc(-c3cccnc3)nc3scc(-c4ccccc4)c23)CC1`, the z-score was -0.234.

On to `Cc1cc(C)nc(/N=C2\NC(=O)CC3C(=O)NCCN23)n1` (configuration not stated), for which the z-score was -0.12.

In turn, `CC(C)c1nnc(NC(=O)CCN2C(=O)c3ccccc3C2=O)s1` yielded a z-score of 0.268.

`O=C(Nc1ncc(Cc2cccc(Cl)c2)s1)c1cccs1`: the z-score was -0.167.

`Oc1ccccc1/C=N/c1c(-c2ccco2)nc2ccccn12` yielded a z-score of -0.278.

The compound `COc1ccc(CCNc2nc(-c3ccco3)cc(C(F)(F)F)n2)cc1OC` yielded a z-score of -0.906.

`COC(=O)/C=c1\sc2n(c1=O)C(C)=CC(C)(C)N=2` yielded a z-score of -0.611.

For `CN1/C(=C/C2CC(=O)N(c3cccc4ccccc34)C2=O)C(C)(C)c2ccccc21` (configuration not stated), the z-score was -0.674.

Compound `COc1ccc2c(c1)cc(C(=O)O)n2C` registered a z-score of 0.0275.

Take `COc1cc(Cl)c(C)cc1NC(=O)COC(=O)/C=C/c1c(C)nn(C2CCS(=O)(=O)C2)c1Cl` (configuration not stated): the z-score was -0.286.

The compound `O=C(NCCOCCOCCNC(=O)c1cccnc1)c1cccnc1` showed a z-score of 0.119.

In turn, `Nc1cc(-c2ccc(Cl)cc2)nn1S(=O)(=O)c1ccc(Cl)cc1` came in with a z-score of -0.0623.

For the compound `Clc1ccc(-c2nnc3c4ccccc4nc(N4CCOCC4)n23)cc1Cl`, the z-score is -0.168.

As for `COC(=O)C1=C(C)N(CCc2ccc(OC)cc2)C(=O)C1`, the z-score amounted to 2.28.

`Cc1onc(-c2ccccc2Cl)c1C(=O)N1CC(C)OC(C)C1` (configuration not stated) came in with a z-score of -0.52.

On to `CCCn1nnc(NC(=O)COc2ccccc2Cl)n1`, for which the z-score came out at 0.651.

`CCCCCNC(=O)C(C#N)c1nc2ccccc2nc1N1CC(C)OC(C)C1` (configuration not stated) displayed a z-score of -0.47.

`CCCCSc1c(C)c2cc3c(cc2[nH]c1=O)OCO3` came in with a z-score of -1.07.

In turn, `O=C(CNC(=S)N(Cc1ccccc1)Cc1cccnc1)NC1CCCCC1` yielded a z-score of -0.159.

On to `CCC(=O)Nc1ccc(S(=O)(=O)Nc2cccc(C)c2)cc1OC`, for which the z-score is -0.094.

Consider `COc1cccc(-c2csc(N3CCN(C(=S)Nc4cccc(Cl)c4)CC3)n2)c1`, for which the z-score was 0.143.

In turn, `COc1ccccc1S(=O)(=O)Cc1ccc(C(=O)NC(C)c2ccc3c(c2)OCCO3)o1` (configuration not stated) registered a z-score of -0.0397.

`CN(C)CCCN(C(=O)c1cc2ccccc2oc1=O)c1nc2ccc(F)cc2s1` yielded a z-score of 0.194.

Turning to `C(=C\c1ccccc1)/CSc1nnc(-c2cccnc2)o1`, the z-score is -1.49.

With `Clc1cc(Cl)c2nc(N3CCOCC3)sc2c1`, the z-score was -0.475.

For the compound `CCOC(=O)CSc1nc2c(sc3ccccc32)c(=O)n1CCCN1CCOCC1`, the z-score came to 0.498.

For the compound `Cc1cc(N2CCOCC2)nc(SCC(=O)c2ccc(Cl)cc2)n1`, the z-score is -0.547.

The compound `CCCCOC(=O)Cn1c(=O)oc2ccc(C)cc21` returned a z-score of 0.171.

For `COc1ccc(NC(=O)N(C2CCCCC2)C(C)c2cccnc2)c(OC)c1` (configuration not stated), the z-score is -0.0677.

`CC1CCc2nc(NC(=O)c3ccc(S(=O)(=O)N4CCCc5ccccc54)cc3)sc2C1` (configuration not stated) displayed a z-score of -0.137.

Regarding `Cc1ccc(C(C(=O)NC2CCCC2)N(C(=O)Cc2cccs2)c2ccc3c(c2)OCCO3)cc1` (configuration not stated), the z-score is -0.449.

Consider `Cc1[nH]c2ccccc2c1C(=O)CN1C(=O)NC2(CC(C)CC(C)(C)C2)C1=O` (configuration not stated), for which the z-score was -0.266.

Compound `O=C1CC(c2ccccc2Cl)C2=C(COC2=O)N1` (configuration not stated) displayed a z-score of -0.181.

Compound `COc1ccc(C2C(C(=O)Nc3ccccn3)=C(C)Nc3ncnn32)c(OC)c1` (configuration not stated) gave a z-score of 0.84.

In turn, `COCc1nc2ccccc2n1Cc1ccc(Br)cc1` yielded a z-score of -0.445.

For `Cc1ccccc1C(=O)Nc1sc(C)c(C)c1C(=O)c1ccccc1`, the z-score was -0.236.

Compound `O=C(Nc1cccc(Cl)c1)Nc1cc(S(=O)(=O)N2CCCCC2)ccc1Cl` displayed a z-score of 0.00193.

With `CC(OC(=O)C1CCN(S(=O)(=O)c2ccccc2)CC1)C(=O)Nc1ncc(Cl)cc1Cl` (configuration not stated), the z-score was -0.265.

The compound `O=C(c1ccco1)N1CCN(S(=O)(=O)c2ccc(Oc3ccccc3)cc2)CC1` had a z-score of 0.84.

`COC(=O)C1=C(C)N=C2SCCC(=O)N2C1c1ccc(OC(=O)c2ccco2)cc1` (configuration not stated) showed a z-score of 1.59.

`Nc1nc(SCc2ccc(Cl)cc2)[nH]c(=O)c1-c1ccccc1` yielded a z-score of 0.163.

For `O=c1[nH]cnc2nc(-c3ccccc3)c(-c3ccccc3)nc12`, the z-score stood at 0.419.

With `Cc1ccc(Nc2nc(N)nc(CSC(=S)N3CCN(c4ccccc4)CC3)n2)cc1`, the z-score was -0.237.

For the compound `Cc1cccc(N2C(=O)N(c3ccccc3C)C3CS(=O)(=O)CC32)c1` (configuration not stated), the z-score was -0.368.

Compound `CC(C)CCCCCCNC(=S)Nc1ccc(S(=O)(=O)N2CCOCC2)cc1` came in with a z-score of 0.432.

Consider `O=c1oc2ccccc2c2c1ncn2C1CCCCC1`, for which the z-score was -0.33.

Turning to `O=C(CSc1ccccc1)Nc1cccnc1`, the z-score amounted to 0.182.

`O=S(=O)(c1cccc(NC(=S)N2CCN(c3cccc(Cl)c3)CC2)c1)C(F)F` showed a z-score of -0.0235.

As for `COC(=O)Cc1csc(N)n1`, the z-score was -0.232 and 0.0841.

`CN(C)c1ccc(/C=C/c2ccncc2)cc1` registered a z-score of -0.421.

In turn, `CCOc1cc(C(=S)N2CCCC2)ccc1OCC(=O)Nc1c(C)cc(C)cc1C` returned a z-score of 0.0537.

`CCn1cc(C(=O)N2CCc3ccccc32)c(=O)c2cc(S(=O)(=O)N3CCCCCC3)ccc21` had a z-score of 0.415.

Regarding `Cc1nc(NS(=O)(=O)c2ccccc2)sc1NC(=O)OC(C)C`, the z-score turned out to be 0.543.

Compound `CN1CCN(c2cc(=O)n(-c3ccc(Cl)cc3)c(=O)[nH]2)CC1` had a z-score of -0.111.

For `O=C(CSc1nnc2ccccn12)Nc1ncc(Cl)cc1Cl`, the z-score is -0.372.

The compound `COC(=O)c1ccc(CN(c2ccccn2)S(=O)(=O)c2ccccc2)cc1` yielded a z-score of -0.465.

In turn, `CCCC(=O)n1nc(-c2ccccc2)nc1SC` gave a z-score of -0.399.

For `CCOc1[nH]n(-c2ccc(Cl)cc2)c(=O)c1C=Nc1ccc(C)cc1`, the z-score is -0.176.

`NC(=O)c1ccccc1NC(=O)CCCN1C(=O)CCC1=O` displayed a z-score of 0.329.

`COc1ccccc1NC(=O)CN1C(=O)CCS(=O)(=O)c2ccccc21` yielded a z-score of 0.47.

As to `O=C(c1ccccc1)c1ccc(OCC(O)CNC2CCCc3ccccc32)cc1` (configuration not stated), the z-score was 0.69.

The compound `CCCS(=O)(=O)N1CCCC(C(=O)N2CCN(c3ccccn3)CC2)C1` (configuration not stated) returned a z-score of -0.17.

Compound `O=C(NC(=S)NCCc1ccccc1)c1ccccc1` had a z-score of 1.9.

`COc1ccc(Cn2c(-c3ccc(Br)cc3)c[n+]3ccccc23)cc1` gave a z-score of -0.171.

In turn, `O=C1c2ccccc2C(O)(Cc2ccccc2)N1C1CCCCC1` (configuration not stated) showed a z-score of -0.362.

As to `O=C(Cc1cccs1)N/N=C/C=C/c1ccccc1`, the z-score was 0.961.

The compound `Cc1cccc(CSc2nncc(=O)[nH]2)c1` yielded a z-score of -0.0637.

Compound `Cc1ccc(C)c2c3c([nH]c12)-c1nonc1CC3` had a z-score of -0.122.

Compound `COc1ccc(S(=O)(=O)N2CCN(CC(=O)Nc3ccc(F)c(F)c3)CC2)cc1` yielded a z-score of -0.731.

`CCOC(=O)c1ccccc1C(=O)N1CCOCCOCCOCC1` gave a z-score of 0.104.

In turn, `CCOCCCNC(=O)c1c(N)n(-c2ccc(S(N)(=O)=O)cc2)c2nc3ccccc3nc12` returned a z-score of -0.293.

`CCCOc1ccc(Cn2cnc3ccccc32)cc1` came in with a z-score of 0.0859.

`CCN(CC)S(=O)(=O)c1cccc(NC(=O)COC(=O)c2cc(C)oc2C)c1`: the z-score is 1.34.

The compound `COC(=O)N(C)c1nc2ccccc2s1` registered a z-score of 0.104.

For the origin of these results see PubChem BioAssay AID488969 (Vanderbilt High Throughput Screening Facility, 2010).
